# In all, about 33,000 sequences were measured (“E-score (-0.5 to 0.5)”: median about -0.016, highest 2% from about 0.31 on). Some of the results follow.
# Molecular target: Cst6 (UniProt P40535)
# Assay: PBM E-score (8-mer binding enrichment) (E-score (-0.5 to 0.5)); higher = stronger / more preferred TF binding; most listed sequences are background and not binding sites
# Conditions: protein concentration: 200 nM; construct: GST-DNA-binding domain
# Procedure, shortened: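 Each ungapped eight-base word and its reverse complement, pooled, received an E-score from the Universal PBM Analysis Suite. Underlying scans, normalised with masliner, recorded fluorescent anti-GST bound to GST-tagged yeast transcription factors. These were applied at about 100-200 nM to universal all-10-mer Agilent arrays double-stranded by primer extension.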
row,Sequence,PBM E-score
1,TGGGCAAA,-0.0373
2,AAATAATC,0.178
3,ACGCGTTC,-0.041
4,AAAGCGCA,-0.146
5,CTAAAATA,0.18
6,CCTTTACC,-0.194
7,CGATTGCG,0.11
8,ACTTGATA,0.0974
9,CTGCGCCC,-0.302
10,ATGTAGTG,0.0861
11,GTTATAAA,0.269
12,CTCACAGA,-0.0236
13,AGTTGCAG,-0.115
14,GTTAGTAA,0.0396
15,AAGACTTG,-0.108
16,AGTGGTGA,0.241
17,AGCCATAG,-0.226
18,CCGGACGC,8e-05
19,ACAAAACA,0.205
20,GTCAATAA,0.155
21,TATGATGA,0.337
22,ACCTTATG,-0.00272
23,CGCTACAA,0.0279
24,CGGAGATC,-0.205
25,CAACTCTA,-0.125

row,Sequence,PBM E-score
1,ATGTGGCA,0.152
2,AGTTCGCC,0.0158
3,AATGCTAG,-0.0907
4,CGGACGGC,0.136
5,AAGCGATA,0.1
6,AAGTAATG,0.116
7,GTAAAGCA,0.167
8,ATAAATAC,0.299
9,CCGGGCCA,-0.203
10,GACCCGTA,-0.015
11,CTGAGTGC,-0.153
12,CTACTAAA,0.0911
13,CTTGGTTA,-0.017
14,GCGGGCGA,-0.0322
15,AAGTTTTG,0.14
16,CGAAACGA,0.115
17,CAGTCGGA,-0.255
18,AGATCTAC,-0.11
19,ATAGATGC,-0.0272
20,GGATTTAC,0.119
21,CCCCACGG,-0.0769
22,GAATCTCA,-0.17
23,GAAGGTAA,0.144
24,CTCAGATC,-0.0954
25,ACGTGCGG,0.119

row,Sequence,PBM E-score
1,CTCTTCTA,-0.109
2,ATATCCTA,0.0504
3,GAGAAGGA,-0.114
4,CACTATAG,-0.0685
5,GCTACATA,-0.157
6,CCACGACC,-0.121
7,AGCTACTC,-0.274
8,CACATTAC,0.269
9,AAAATGGG,-0.0472
10,AGCTCGGC,-0.0177
11,AGCCACTA,-0.0971
12,CGGTCATC,0.085
13,TGTGGGAA,-0.0456
14,CCGACCTC,-0.26
15,CTCAGACA,0.0563
16,AATCATTG,0.103
17,AGCCTGAT,0.0483
18,GGCGTCGA,0.198
19,ATACGCAC,0.073
20,ATCGTCCA,-0.18
21,ACTAATGC,0.168
22,AAGAACTG,-0.0222
23,ACGCCGTC,0.389
24,TATTATAA,0.193
25,AGATGTCA,0.298

row,Sequence,PBM E-score
1,ACGTACAC,0.194
2,AAAGGGCT,-0.174
3,ACGCGCGT,0.151
4,AGCCTCGG,-0.25
5,ACGGAGTA,-0.024
6,AGACATTG,-0.114
7,TACTGAAA,0.273
8,GGCTAAGA,-0.0856
9,AACCAGTT,0.231
10,AGCGCCGG,-0.102
11,CGTACACC,-0.093
12,GCCCCGAC,-0.259
13,GGTTATGA,0.076
14,AAGCTCCC,-0.347
15,GGTGATCA,0.106
16,CAGGCTCA,-0.0301
17,AGTCCAAA,-0.00975
18,ACTTCAAT,0.187
19,ATTGTTGC,0.234
20,CTGGCGTC,-0.0408
21,CACCCGAC,0.00511
22,ATTCCCTA,0.00087
23,CCTTTTCA,0.0178
24,AAGCGCCA,-0.149
25,AGGCCACT,-0.174

row,Sequence,PBM E-score
1,TCGCAGAA,-0.0678
2,AATAGTCT,-0.0531
3,TACCAAGA,0.0149
4,ATGTCGGC,-0.0222
5,GCAGTTGA,0.00361
6,CCCCAGCA,-0.23
7,AACTGCCC,-0.271
8,ACAGTTTC,0.124
9,CCAAAACG,0.0419
10,TACACCAA,-0.087
11,CCACAGGA,-0.11
12,AAGAGCCC,-0.144
13,AAGACCCT,-0.213
14,AAGGACCC,-0.382
15,GAAAATCC,0.103
16,ACGAGATA,0.096
17,GTATGGAC,-0.0386
18,GCGCACGA,0.0114
19,GGATATCA,-0.0151
20,TCTCCACA,0.0777
21,CACTGCGG,0.0257
22,CAGAGGCC,-0.298
23,AACAATGC,0.175
24,TTATAAAA,0.236
25,GAACTGTC,-0.226

row,Sequence,PBM E-score
1,ACTCGCAG,-0.0927
2,AGGCGATG,-0.0448
3,CGAACTCG,0.00456
4,CCTCAGCA,-0.276
5,GAGAGGAC,-0.16
6,CCGTCGTA,-0.0253
7,CCTTAGAG,-0.27
8,CCTATTCA,-0.0777
9,AACTCCCC,-0.243
10,TCTACTCA,0.0937
11,CCGTAATC,0.0889
12,CACTTGGC,-0.08
13,ACTGCCCC,-0.29
14,AAGTTCGC,0.0219
15,TCAGTAGA,0.0696
16,AAGTACAT,0.06
17,GGAATGAA,0.181
18,TCCTGTCA,-0.0225
19,CTAGGAAG,-0.238
20,CGTGGTTC,-0.077
21,CACCCGTG,-0.173
22,AATTCCCC,-0.0694
23,CTTTAGAC,0.0102
24,GTCTATTA,0.0308
25,GCTCGGCA,-0.0691

row,Sequence,PBM E-score
1,CTGAGTAC,-0.0198
2,CCGGCATA,-0.15
3,CGTCTAAA,-0.113
4,GGTGCGAC,-0.168
5,CAATCTAC,-0.0958
6,GCTCAATA,0.0653
7,CCAGATAC,-0.0851
8,CAGAATAA,0.16
9,AGGCCTAG,-0.221
10,AGTTCAAA,0.139
11,AACCCTAT,0.0363
12,GCATTATA,0.0909
13,ATAAATAG,0.135
14,CTGCAGAC,-0.207
15,AGCTTGGA,-0.274
16,ACAGGTCC,-0.25
17,AATATCAA,0.128
18,CGGTAGAC,-0.102
19,AATTGCGA,-0.111
20,AACGTCCT,-0.0138
21,AGACAAGA,0.0392
22,TAACACAA,0.211
